# Laboratory results taken from paper PMC4336329 (PLoS ONE, 2015).
# In all, about 310,000 compounds went through this assay and about 2,200 (0.71%) showed an effect of 50% or more. The effect is printed as a negative number. This is one part of the list.
# Target: human ether-à-go-go-related gene (hERG) potassium channel (human, UniProt Q12809)
# Assay: primary screen, population patch clamp on CHO cells stably expressing hERG
# Chain of human ether-à-go-go-related gene (hERG) potassium channel (Q12809 whole entry, looked up): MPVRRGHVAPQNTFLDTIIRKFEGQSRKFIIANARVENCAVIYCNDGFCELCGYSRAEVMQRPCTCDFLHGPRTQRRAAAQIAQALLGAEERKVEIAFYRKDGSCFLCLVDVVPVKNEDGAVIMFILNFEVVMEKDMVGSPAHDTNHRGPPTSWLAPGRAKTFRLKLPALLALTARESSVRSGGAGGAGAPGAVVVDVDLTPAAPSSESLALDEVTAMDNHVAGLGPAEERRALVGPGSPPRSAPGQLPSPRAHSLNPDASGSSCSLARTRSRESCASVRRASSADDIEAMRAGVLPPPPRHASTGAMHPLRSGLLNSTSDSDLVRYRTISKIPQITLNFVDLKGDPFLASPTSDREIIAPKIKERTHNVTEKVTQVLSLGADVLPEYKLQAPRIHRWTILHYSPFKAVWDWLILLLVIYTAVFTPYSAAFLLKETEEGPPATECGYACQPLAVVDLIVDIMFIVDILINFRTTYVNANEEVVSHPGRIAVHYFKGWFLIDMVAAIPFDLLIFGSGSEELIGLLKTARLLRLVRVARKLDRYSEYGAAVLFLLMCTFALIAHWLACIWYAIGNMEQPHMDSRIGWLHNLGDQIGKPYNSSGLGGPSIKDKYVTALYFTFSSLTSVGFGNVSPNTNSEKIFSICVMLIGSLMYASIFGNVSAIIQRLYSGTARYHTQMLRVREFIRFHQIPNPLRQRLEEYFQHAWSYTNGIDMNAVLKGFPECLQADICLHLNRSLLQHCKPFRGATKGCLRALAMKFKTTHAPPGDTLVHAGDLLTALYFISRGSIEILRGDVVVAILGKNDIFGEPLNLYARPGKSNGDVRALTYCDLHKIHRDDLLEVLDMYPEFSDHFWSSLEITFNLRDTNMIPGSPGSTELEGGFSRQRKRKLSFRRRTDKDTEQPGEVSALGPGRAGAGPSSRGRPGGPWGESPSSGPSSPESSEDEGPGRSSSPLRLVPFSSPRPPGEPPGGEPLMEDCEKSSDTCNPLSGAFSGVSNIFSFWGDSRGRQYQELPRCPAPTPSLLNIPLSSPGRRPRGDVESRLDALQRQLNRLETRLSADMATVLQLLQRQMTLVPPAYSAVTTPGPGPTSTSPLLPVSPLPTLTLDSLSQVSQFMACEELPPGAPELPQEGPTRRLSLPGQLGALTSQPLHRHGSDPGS
row,Compound,"hERG current change (%, negative = inhibition) at 1uM"
1,O=[N+]([O-])c1nn(-c2ccc3c(c2)OCCO3)n(O)c1=Nc1ccc(Cl)cc1,13.6%
2,Cc1ccc(S(=O)(=O)N(C)c2ccc(OC(=O)CN3C(=O)NC4(CCCC4)C3=O)cc2)cc1C,7.91%
3,O=C1C(=O)N(Cc2ccco2)C(c2cccc(Cl)c2)/C1=C(\O)c1ccc2c(c1)OCCO2 (centres unmarked),14.9%
4,Cc1ccc(C)c2[nH]c(=O)c(CCNC(=O)Cc3cccs3)cc12,3.36%
5,COc1ccc(NC(C)=O)cc1S(=O)(=O)N1CCc2ccccc21,7.93%
6,O=C(Nc1ccc(F)c(F)c1)c1ccc(F)c(S(=O)(=O)N2CCC3(CC2)OCCO3)c1,10.4%
7,O=C(COC(=O)c1cc(NS(=O)(=O)c2cccs2)ccc1O)Nc1ccccc1,11.5%
8,CCN(Cc1nc(-c2ccccc2)no1)C(=O)c1ccc2c(c1)OCO2,11.2%
9,Cc1c(N=Cc2ccncc2)c(=O)n(-c2ccccc2)n1C,-15.6%
10,CCCCN(C)C(=O)c1oc2ccc(S(=O)(=O)N3CCCCCC3)cc2c1C,7.73%
11,C=CCn1c(SCC(=O)NC(=O)NCc2ccco2)nc2sc(C)c(C)c2c1=O,6.36%
12,O=C(COc1ncnc2sccc12)Nc1ccc2c(c1)OCCO2,14.5%
13,O=C(O)CCc1ccc(-c2ccc(Cl)cc2)n1CCC(=O)O,11.6%
14,CC1CCCC(NC(=O)CCNC(=O)c2ccc(Cl)cc2)C1C (centres unmarked),1.39%
15,Cc1onc(-c2c(Cl)cccc2Cl)c1C(=O)NC1C(=O)N2C1SC(C)(C)C2C(=O)[O-].[Na+] (centres unmarked),9.43%
16,COc1ccc(CN(CCC(c2ccccc2)C2CCOC(C)(C)C2)C(C)=O)cc1 (centres unmarked),2.09%
17,COc1ccc(N2CC(O)=C(c3nc(-c4ccccc4)cs3)C2=N)cc1,9.65%
18,CC(C)(C)c1ccccc1OCC(=O)Nc1ncn[nH]1,16.2%
19,Cc1cc(=O)n2[nH]c(NCc3ccccc3F)nc2n1,5.99%
20,C=C(C)COc1ccc(-c2nc(N)nc(C)c2Oc2ccccc2OC)c(O)c1,14%
21,O=C(c1ccco1)N1CCN(C(=O)c2cc3sccc3n2Cc2ccccc2)CC1,-11%
22,CCCCn1c(N)c(N(CCOC)C(=O)COc2c(C)cccc2C)c(=O)[nH]c1=O,6.75%

row,Compound,"hERG current change (%, negative = inhibition) at 1uM"
1,Cn1c(COc2ccc3ccccc3c2)nnc1SCC(=O)OC1CCCCC1,10.1%
2,CN(C)c1ccc(NC(=O)Cn2c(=O)n(Cc3ccccc3)c(=O)c3ccccc32)cc1,4.7%
3,CCOCCCN(C)C1CCN(C(=O)c2oc3ccccc3c2NC(=O)c2cccc([N+](=O)[O-])c2)CC1,-86%
4,CCC1C(C#N)=C(N)OC2=C1C(=O)CC(C)(C)C2 (centres unmarked),9.61%
5,Cc1ccc(N(C)S(=O)(=O)c2csc(C(N)=O)c2)cc1C,2.78%
6,O=[N+]([O-])c1ccc(N2CCN(c3ccccc3F)CC2)nc1,11.6%
7,OCCOCCOc1cccc2[nH]ccc12,7.87%
8,CC1CCN(S(=O)(=O)c2ccc3c(c2)CC(C)N3C(=O)C2CCC2)CC1 (centres unmarked),13.8%
9,COc1ccc(CNc2nc3nc(C)cc(C)n3n2)cc1OC,-4.82%
10,C=CCN(c1ccc(F)cc1)S(=O)(=O)c1cc(C(=O)OCC(=O)N(C)C2CCS(=O)(=O)C2)ccc1Cl (centres unmarked),-3.64%
11,Cn1c(=O)cc(NCc2ccccc2)[nH]c1=O,13.1%
12,O=C(NNc1ccccc1Br)C(O)(c1cccc(C(F)(F)F)c1)c1cccc(C(F)(F)F)c1,4.11%
13,COC(=O)c1[nH]c2ccccc2c1NS(=O)(=O)c1ccc(F)c(C)c1,-1%
14,CCN(CC(O)COc1ccc(OCC(O)CN(CC)C2CCCCC2)cc1)C1CCCCC1 (centres unmarked),22.2%
15,Cc1c(/C(O)=C2/C(=O)C(=O)N(Cc3cccnc3)C2c2ccccn2)cnn1-c1ccccc1 (centres unmarked),6.91%
16,CCN(CC)c1ccc2cc(S(=O)(=O)c3ccc(Cl)cc3)c(=O)oc2c1,-3.3%
17,CCOC(=O)N1CCN(C2CC(=O)N(c3ccccc3)C2=O)CC1 (centres unmarked),12.8%
18,CC12CCC(C(=O)NCc3ccc4c(c3)OCO4)(CC1=O)C2(C)C (centres unmarked),-9.45%
19,COc1ccc(/C=C2/NC(=O)CNC2=O)cc1,14.3%
20,O=C(Nc1cccc(F)c1)c1cc(S(=O)(=O)N2CCOCC2)ccc1N1CCCC1,12.2%
21,CN(C)c1ccc(N2C(=NC(=O)C3CCCO3)SC3CS(=O)(=O)CC32)cc1 (centres unmarked),11.8%
22,COC(=O)C(CC(C(=O)OC)C(=O)OC)C(=O)OC,10.3%

row,Compound,"hERG current change (%, negative = inhibition) at 1uM"
1,COc1cnn(-c2cccc(Cl)c2)c(=O)c1Cl,12.9%
2,COc1ccc(C2CC(c3cccs3)=NN2C(=O)CSc2nc3ccccc3o2)cc1 (centres unmarked),17.7%
3,CN1CCN(C(=O)CCc2ccc(S(=O)(=O)NC3CCCCC3)cc2)CC1,17.6%
4,CCc1cccc(NS(=O)(=O)c2ccc3c(c2)NC(=O)CC(=O)N3)c1,21.6%
5,CSc1nccc(NC(=O)c2ccc(C(C)(C)C)cc2)n1,10%
6,Cc1ccc(Nc2ncc3c(n2)CC(C)CC3=O)c(C)c1 (centres unmarked),11.8%
7,CC(=O)Nc1ccc(S(=O)(=O)N2CCN(C(=O)N3CCCCCC3)CC2)cc1,11%
8,CCOC(=O)C(CC)n1cnc2c(nnn2-c2ccccc2)c1=O (centres unmarked),1.66%
9,CCOc1ccc(-n2nnnc2SCC(=O)NC2CCCC2)cc1,1.14%
10,O=C(NCC1CCCO1)c1onc(CSc2ccc(F)c(F)c2)c1C(=O)O (centres unmarked),12.4%
11,COc1cc(C(=O)N/N=C/c2coc3ccc(Cl)cc3c2=O)ccc1O,4.54%
12,CCOC(=O)CSc1nnc(-c2cccs2)n1-c1ccccc1,-5.75%
13,Cc1c(CN2CCC(n3nccc3NC(=O)CCc3ccccc3)CC2)cnn1C,22.5%
14,CCC(=O)N1CCc2cc(S(=O)(=O)CCC(=O)N3CCN(c4ccccc4)CC3)ccc21,11.8%
15,CSc1nnc(-c2ccc(O)cc2)n1C,-1.62%
16,CN(C(=O)c1ccc(S(=O)(=O)N2CCCC2)cc1)C1CCCCC1,14.4%
17,CSc1ccccc1NC(=O)COC(=O)CCc1ccccc1,18.8%
18,O=C(CSc1nc(C2CC2)nc2ccccc12)Nc1ccccc1Cl,20.5%
19,Cc1cc(C)cc(Nc2c(F)c(F)c(F)c(F)c2C(=O)O)c1,13.9%
20,O=C(C1CCCN(S(=O)(=O)c2cc(Cl)ccc2Cl)C1)N1CCCC1 (centres unmarked),6.82%
21,CN1CCN(CC(=O)Nc2ccc(Cl)cc2Cl)CC1,-46.1%
22,C=CCn1c(SCC(C)=O)nc2scc(-c3ccco3)c2c1=O,12.8%

row,Compound,"hERG current change (%, negative = inhibition) at 1uM"
1,O=C(c1cccs1)N(Cc1ccc(F)cc1)C1CCS(=O)(=O)C1 (centres unmarked),-9.7%
2,O=C(CSc1nnc(-c2cccs2)n1-c1cccc(Cl)c1)c1cccc2c1OCCO2,18%
3,CCOc1ccc(NC(=O)c2cc(S(=O)(=O)N3CCOCC3)cs2)cc1,18.7%
4,CN1CCN(c2ccccc2NC(=O)COc2ccc(Cl)cc2)CC1,-6.49%
5,Cc1ccc(NC(=O)CSc2ncccc2C(=O)Oc2cccc([N+](=O)[O-])c2)cc1Cl,9.5%
6,COc1ccc(NC(=O)c2nc[nH]c2C(=O)N[C@@H](C)c2ccccc2)cc1,7.34%
7,O=C1CCC(C(=O)N2CCCC(C(=O)c3ccc4ccccc4c3)C2)=NN1 (centres unmarked),5.13%
8,C/C(=N\NC(=O)OC(C)(C)C)c1ccc(-n2ccnc2)cc1,-3.81%
9,O=C(NCCCc1ccc(F)cc1)C1CCC(=O)N(CCCN2CCCC2=O)C1 (centres unmarked),13.1%
10,CCN(CC)S(=O)(=O)c1ccc(/C=C/C(=O)Nc2c(C)n(C)n(-c3ccccc3)c2=O)cc1,5.28%
11,CCOc1cc(-c2nnc(NC(=O)c3ccco3)o2)cc(OCC)c1OCC,11.1%
12,COc1c(C(CC(C)C)OC(C)=O)ccc2c1C(=O)OCc1cc(C)cc(O)c1O2 (centres unmarked),7.47%
13,CC(=O)Nc1ccc(NS(=O)(=O)c2ccc3c(c2)NC(=O)CC(=O)N3)cc1,-2.74%
14,Cl.O=C(O)c1ccc(CNCc2cccc(Cl)c2Cl)cc1,2.5%
15,O=C1CC(c2cccc(Cl)c2)Cc2nc(N3CCOCC3)ncc21 (centres unmarked),11.3%
16,CCCCC(=O)NC(=S)Nc1cccc(NC(=O)c2ccco2)c1,8.58%
17,O=C(COc1ccccc1[N+](=O)[O-])Nc1cc(C(=O)O)cc(C(=O)O)c1,16%
18,COc1ccc(CNC(=O)Cn2c(=O)n(CC(=O)N3CCCCC3)c(=O)c3sccc32)cc1,11.6%
19,O=C(NCCc1ccccc1)C(=O)NCc1ccncc1,-3.68%
20,O=C1CCN(Cc2ccc([N+](=O)[O-])cc2)CCN1CCO,5.29%
